{"source": "PubChem BioAssay AID686979", "about": "(National Center for Advancing Translational Sciences (NCATS), 2013)", "note": "In all, about 420,000 compounds went through this assay and about 50,000 (12%) were called active. Inconclusive means that the source gave no clear call. Such entries were picked first, then a sample of the others. The call rests on the fitted dose curve; in most records, active means well fitted inhibition curve with a large enough effect; inconclusive means small, poorly fitted or top-dose-only effect; inactive means flat fitted curve, though single readings scatter. No potency is given beside an inconclusive call; the fits are too rough. On the % scale 0 is the no-effect control and ±100 the full control effect; potency means the concentration at half of the fitted maximal effect; tags describe the fitted curve by direction and shape.", "data": [{"assay": "qHTS for Inhibitors of human tyrosyl-DNA phosphodiesterase 1 (TDP1): qHTS in cells in presence of CPT; further: nearly all actives have a fitted effect of over 55% in size", "details": "chicken DT40 Tdp1-/-;hTDP1 cells + 20 nM CPT, ATP luminescence, 48 h; activity change, negative = growth inhibition: at 46.2 µM (top of the series) unless noted", "outline": "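Chicken DT40 Tdp1-/- cells stably complemented with human TDP1 were seeded at 400 cells/well in medium containing 20 nM camptothecin, exposed to pin-transferred compounds, and grown at 37 °C for at least 48 hr. Viability was read as ATP luminescence.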", "values": [{"smiles": "C=CCNc1ccccc1S(=O)(=O)NCc1ccccc1", "activity change, negative = growth inhibition": "inconclusive: -34% [inhibitor]"}, {"smiles": "CCOc1ccccc1CNC(=O)c1cccc(NC(=O)c2nsc3ccccc23)c1", "Potency": "active: 5.8 µM"}, {"smiles": "N/C(=N\\OC(=O)c1cc(-c2ccccc2)nc2ccccc12)c1ccccn1", "Potency": "active: 13 µM"}, {"smiles": "CSc1cccc(NC(=O)C(C)Sc2ccc(C)cc2)c1", "note": "(stereo unspecified)", "activity change, negative = growth inhibition": "inactive: -7.06%"}, {"smiles": "O=C(O)c1cn(-c2ccccc2)nc1-c1cccnc1", "activity change, negative = growth inhibition": "inactive: 2.82%"}, {"smiles": "COc1cc(/C=N/Nc2ccccc2[N+](=O)[O-])cc(OC)c1O", "Potency": "inconclusive [inhibitor, single point]"}, {"smiles": "Cc1ccc(NC(=O)CC(O)(C(F)(F)F)C(F)(F)F)cc1", "Potency": "inconclusive [inhibitor, single point]"}, {"smiles": "COc1ccccc1NC(=O)c1ccc(C(=O)Nc2ccccc2OC)nc1", "Potency": "active: 4.61 µM"}, {"smiles": "COc1ccc(N2CCN(c3cc(C)nc4ccc(OC)cc34)CC2)cc1", "Potency": "active: 14.6 µM"}, {"smiles": "O=C(NCc1ccc2c(c1)OCO2)Nc1ccc([N+](=O)[O-])cc1", "Potency": "active: 20.6 µM"}, {"smiles": "O=C(Nc1ccc(F)cc1F)c1ccccc1NC(=O)C1CC=CCC1C(=O)O", "note": "(stereo unspecified)", "Potency": "inconclusive [inhibitor, single point]"}, {"smiles": "COc1ccc(N(C(=O)c2ccc(C)cc2)S(=O)(=O)c2cccs2)cc1", "Potency": "inconclusive [inhibitor, single point]"}, {"smiles": "CC[C@]12c3[nH]c4cc(CCC(=O)N(C)C)ccc4c3CCN1C(=O)[C@@H](CC(=O)NCCCOC)C[C@@H]2C(=O)N1CCN(C(=O)c2ccco2)CC1", "activity change, negative = growth inhibition": "inactive: -9.75%"}, {"smiles": "CC(C)(C)c1csc(NNC(=O)c2ccc(Br)cc2)n1", "Potency": "inconclusive [inhibitor, single point]"}, {"smiles": "CC(C)CCn1c(=O)c2sccc2n2c(CCCC(=O)N3CCN(c4ccccn4)CC3)nnc12", "Potency": "inconclusive [inhibitor, single point]"}, {"smiles": "COc1cccc(N2CCN(C(=O)c3cc4c(OC)c(OC)c(OC)cc4[nH]3)CC2)c1", "Potency": "inconclusive [inhibitor, single point]"}, {"smiles": "O=C(Nc1ccc(OCc2ccccc2)cc1)c1cccnc1", "activity change, negative = growth inhibition": "inactive: -5.38%"}, {"smiles": "COc1ccc(C(CC(=O)c2ccccc2)C2CCCCC2=O)cc1", "note": "(stereo unspecified)", "Potency": "active: 16.4 µM"}, {"smiles": "CCOC(=O)N1CCN(S(=O)(=O)/C=C/c2ccccc2)CC1", "activity change, negative = growth inhibition": "inactive: -25.6%"}, {"smiles": "Cc1ccc(C)c(S(=O)(=O)N2CCN(CC(=O)Nc3sccc3C#N)CC2)c1", "Potency": "active: 16.4 µM"}, {"smiles": "COc1cccc(/C=C/c2nc(S(=O)(=O)c3ccccc3)c(N(C)C)o2)c1", "Potency": "inconclusive [inhibitor, single point]"}, {"smiles": "COc1cc(OC)c(NC(=O)c2cn(C3CCCC3)c(=O)c3c2c2ccccc2n3C)cc1Cl", "Potency": "inconclusive [inhibitor, single point]"}, {"smiles": "COc1ccc(-c2cnc(C)o2)cc1S(=O)(=O)Nc1ccc(F)cc1F", "activity change, negative = growth inhibition": "inactive: 1.06%"}, {"smiles": "Cc1cc(C)c(S(=O)(=O)Nc2ccc3oc4c(c3c2)C(=O)CC(C)(C)C4)cc1C", "Potency": "inconclusive [inhibitor, single point]"}, {"smiles": "CN1CCN(C(=O)Cn2ncc3c4ccccc4n(Cc4ccc(F)cc4)c3c2=O)CC1", "Potency": "active: 14.6 µM"}, {"smiles": "CCCNC(=O)Cn1cnc2sc(C(=O)N3CCCC(C(=O)OCC)C3)c(C)c2c1=O", "note": "(stereo unspecified)", "activity change, negative = growth inhibition": "inactive: 6.74%"}, {"smiles": "C#CC(C)(O)C1CC(CC(=O)O)C1(C)C", "note": "(stereo unspecified)", "activity change, negative = growth inhibition": "inactive: 36.8%"}, {"smiles": "COc1ccccc1C(=O)Nc1ccc(S(=O)(=O)N2CCOCC2)cc1", "activity change, negative = growth inhibition": "inconclusive: -30.7% [inhibitor]"}, {"smiles": "O=C(c1ccc(Br)cc1)N(Cc1cccs1)c1ccc(F)cc1", "activity change, negative = growth inhibition": "inactive: -0.898%"}, {"smiles": "Cc1nc2nc(SCC(=O)Nc3ccccc3Cl)nn2c(C)c1Cc1ccccc1", "Potency": "inconclusive [inhibitor, partial curve]"}, {"smiles": "CC(C)(C)Nc1scc(-c2ccccc2)[n+]1-c1ccccc1", "activity change, negative = growth inhibition": "inconclusive: -31.6% [inhibitor]"}, {"smiles": "O=C(c1ccccc1)N1N=C(c2ccccc2)CC1c1ccc2nccnc2c1", "note": "(stereo unspecified)", "Potency": "inconclusive [inhibitor, single point]"}, {"smiles": "COc1ccc(-c2nnc(SCCC(=O)O)n2C)cc1OC", "activity change, negative = growth inhibition": "inactive: 13.8%"}, {"smiles": "COc1ccc(S(=O)(=O)N2CCN(c3ccc(F)cc3)CC2)cc1C(=O)N1CCOCC1", "activity change, negative = growth inhibition": "inactive: -21.4%"}, {"smiles": "CCc1ccc(Nc2nnc(SCC(=O)NC(=O)CN3CCCC3=O)s2)cc1", "activity change, negative = growth inhibition": "inactive: 0.0232%"}, {"smiles": "CC1CCCC(NC(=O)c2ccc3c(=O)n(CC4CCCO4)c(=O)[nH]c3c2)C1C", "note": "(stereo unspecified)", "Potency": "inconclusive [inhibitor, partial curve]"}, {"smiles": "CC(=O)Oc1ccc(CN2C(=O)C(CCc3ccccc3)ON=C2c2cnccn2)cc1", "note": "(stereo unspecified)", "Potency": "inconclusive [inhibitor, single point]"}, {"smiles": "O=C(c1ccco1)N(Cc1cc2cc3c(cc2nc1N1CCOCC1)CCC3)CC1CCCO1", "note": "(stereo unspecified)", "activity change, negative = growth inhibition": "inactive: 12.9% [at 9.04 µM]"}, {"smiles": "Cc1ccc(NC(=O)CNCc2cccs2)c(Br)c1", "activity change, negative = growth inhibition": "inactive: -18.4%"}, {"smiles": "CCCOc1ccc(C2C(=O)N(C3CCCCCC3)CC(=O)N2CCC2=CCCCC2)cc1OC", "note": "(stereo unspecified)", "activity change, negative = growth inhibition": "inactive: -12.2%"}, {"smiles": "CC1c2cc3c(cc2CCN1C(=O)c1cccc(F)c1)OCCCO3", "note": "(stereo unspecified)", "Potency": "active: 20.6 µM"}, {"smiles": "C=CC[n+]1c(-c2ccc(OCC)cc2)csc1NNC(=O)Nc1ccccc1", "Potency": "active: 7.31 µM"}, {"smiles": "O=C(CNC(=O)OCc1ccccc1)Oc1cc2oc(=O)cc(-c3ccccc3)c2cc1Cl", "Potency": "inconclusive [inhibitor, single point]"}, {"smiles": "COc1ccccc1C(c1nnnn1Cc1ccccc1)N1CCN(c2nc3ccccc3s2)CC1", "note": "(stereo unspecified)", "Potency": "inconclusive [inhibitor, single point]"}, {"smiles": "COc1cccc(-c2nc3nc(C)cc(C)n3c2Nc2ccc3c(c2)OCCO3)c1", "Potency": "inconclusive [inhibitor, single point]"}, {"smiles": "CC1CCN(S(=O)(=O)c2ccc(C(=O)Nc3nnc(C4=COCCO4)o3)cc2)CC1", "Potency": "active: 23.1 µM"}, {"smiles": "COc1ccc(-c2nc3c4ccccc4ccn3c2Cc2ccc(C)cc2)cc1OC", "Potency": "inconclusive [inhibitor, single point]"}, {"smiles": "Cc1nn(C)c(Oc2cccc(Cl)c2)c1C=O", "Potency": "inconclusive [inhibitor, partial curve, poor fit]"}, {"smiles": "Cc1cc(N(CCO)Cc2ccccc2)n2nc(-c3ccc(C(C)(C)C)cc3)nc2n1", "Potency": "inconclusive [inhibitor, single point]"}, {"smiles": "CCCCCCN1C[C@@H](O)[C@H](n2cc(COC(=O)c3ccccc3)nn2)C[C@@H]1c1ccc(C)cc1", "Potency": "active: 20.6 µM"}, {"smiles": "CCOc1ccc(-n2c(O)cc(=O)[nH]c2=O)cc1", "activity change, negative = growth inhibition": "inactive: 8.88%"}, {"smiles": "NC(=O)CC(NC(=O)Cc1ccc(Br)cc1)c1ccc(NCC2CC2)c([N+](=O)[O-])c1", "note": "(stereo unspecified)", "Potency": "inconclusive [inhibitor, partial curve]"}, {"smiles": "CCN1C(=O)[C@@H]2Cc3c([nH]c4ccccc34)C(c3cc(OC)c(OC)c(OC)c3)N2C1=S", "note": "(stereo partly specified)", "Potency": "inconclusive [inhibitor, single point]"}, {"smiles": "O=C(CCCN1C(=O)C(=Cc2ccc3c(c2)OCO3)SC1=S)Nc1ccc(C(=O)O)c(O)c1", "activity change, negative = growth inhibition": "inconclusive: -31.2% [inhibitor]"}, {"smiles": "COc1ccc2c3c(c(=O)oc2c1OCC(=O)C(C)(C)C)CCCC3", "Potency": "inconclusive [inhibitor, single point]"}, {"smiles": "CCCOc1ccc(C2NC(=S)NC(c3ccccc3)=C2C(=O)Nc2ccc(C)cc2)cc1OC", "note": "(stereo unspecified)", "Potency": "inconclusive [inhibitor, single point]"}, {"smiles": "COc1ccc2nc(SCC(=O)N(C)CC(=O)Nc3ccc(F)cc3)[nH]c2c1", "activity change, negative = growth inhibition": "inactive: 1.77%"}, {"smiles": "COc1cccc(NC(=O)C2CCOC2=O)c1", "note": "(stereo unspecified)", "activity change, negative = growth inhibition": "inactive: -5.82%"}, {"smiles": "COc1ccc(C(=O)Nc2scc(-c3ccc(Cl)cc3Cl)c2C(N)=O)cc1", "Potency": "inconclusive [inhibitor, single point]"}, {"smiles": "Cc1ccc(NC(=O)C2CCCN(S(=O)(=O)c3ccc4[nH]c(=O)ccc4c3)C2)c(C)c1", "note": "(stereo unspecified)", "Potency": "inconclusive [inhibitor, single point]"}, {"smiles": "C[C@@H]1CN([C@@H](C)CO)C(=O)CCCn2nncc2CO[C@@H]1CN(C)S(=O)(=O)c1ccc2ccccc2c1", "Potency": "inconclusive [inhibitor, single point]"}, {"smiles": "COc1cccc(OCCNCc2ccccc2)c1", "Potency": "inconclusive [inhibitor, single point]"}, {"smiles": "Cc1cnc2c(C)cccc2c1/C=C/c1ccc(N(C)C)cc1", "Potency": "inconclusive [inhibitor, full curve, poor fit]"}, {"smiles": "COc1ccc(Cl)cc1NC(=O)C1CCCN(S(=O)(=O)c2cccc3nonc23)C1", "note": "(stereo unspecified)", "Potency": "inconclusive [inhibitor, single point]"}, {"smiles": "Cc1ccc(N2C(=O)C(Cl)=C(Nc3c(C)n(C)n(-c4ccccc4)c3=O)C2=O)cc1", "Potency": "inconclusive [inhibitor, single point]"}, {"smiles": "COc1ccc(Cc2nc(C(=O)NCc3ccccc3OC)cs2)cc1", "Potency": "inconclusive [inhibitor, single point]"}, {"smiles": "CC1C(=O)C(C)(C)C(=O)OC1c1ccc([N+](=O)[O-])cc1", "note": "(stereo unspecified)", "activity change, negative = growth inhibition": "inactive: -11.6%"}, {"smiles": "CCC(=O)Nc1nc2ccc(NC(=O)c3cc(OC)c(OC)c(OC)c3)cc2s1", "Potency": "inconclusive [inhibitor, partial curve, poor fit]"}, {"smiles": "COc1ccc(-c2cc(=O)[nH][nH]2)cc1", "Potency": "inconclusive [inhibitor, single point]"}, {"smiles": "CC(C)CC(=O)NC(=S)NNC(=O)c1cccc([N+](=O)[O-])c1", "Potency": "inconclusive [inhibitor, single point]"}, {"smiles": "Cc1ccc(S(=O)(=O)c2nc(S(C)(=O)=O)sc2NCc2ccc3c(c2)OCO3)cc1", "Potency": "inconclusive [inhibitor, single point]"}]}]}
